# Hit rate of the full screen: of about 52,000 compounds, about 4,300 (8.3%) were called active. No stated cut-off is given here; in the data, active means survival mostly below about 52% (no sharp cut-off); inactive means mostly above about 56%. Some of the results follow.
# System: DeltatarO mutant
# Experiment: S. aureus survival, RN4220 and DeltatarO strains – OD600, teichoic acid synthesis inhibitors, primary screen (AID 463173)
# Settings: S. aureus RN4220 wild type/DeltatarO growth, OD600, 18 h, hits give low values, screened at 18.75 µg/mL (by protocol)
row,Compound,survival
1,O=C(NCc1ccccc1)c1ncn[nH]1,inactive: 80%
2,Clc1cccc(-n2ncc3c(NCCCN4CCOCC4)ncnc32)c1,inactive: 94%
3,COc1ccc(OCC(=O)NC(Cc2c[nH]c3ccccc23)C(=O)O)cc1 (centres undefined),inactive: 60%
4,CCc1nnc(SC(CC)C(=O)Nc2cc(C)ccc2C)c2cc3occc3n12 (centres undefined),inactive: 79%
5,CC1CCN(CCCNC(=O)CN2C(=O)CSc3ccc(S(=O)(=O)N4CCOCC4)cc32)CC1,inactive: 89%
6,Cc1ccc(C)c(NS(=O)(=O)c2ccc3oc(=O)c4ncn(C)c4c3c2)c1,inactive: 82%
7,NC(N)=NC(=O)c1ccc(N)cc1,inactive: 86%
8,CCn1c(=O)c2cc(C(=O)NCCc3ccc(Cl)cc3)sc2c2ccccc21,inactive: 76%
9,CCn1c(=O)c2sccc2n2c(CCC(=O)Nc3ccc(C(C)C)cc3)nnc12,inactive: 93%
10,Cc1ccc(N(C)C(=O)C2CCN(S(=O)(=O)c3cn(C)cn3)CC2)cc1,active: 37%
11,CCSc1nc(NC(C)=O)nn1C(C)=O,inactive: 87%
12,Cc1ccc(NC(=O)c2c(C)oc3ncn(CC(C)C)c(=O)c23)nc1,inactive: 120%
13,Cc1ccc2nc3c(cc(C(=O)NCc4ccco4)c(=N)n3C(C)C)c(=O)n2c1,inactive: 84%
14,CN1/C(=C2/SC(=O)N(Cc3ccccc3)C2=O)Sc2ccccc21,inactive: 74%
15,O=C(Nc1ccc(N2CCOCC2)c(C(=O)O)c1)c1ccc(Br)cc1,active: 8%
16,Cc1ccc(CNC(=O)Cn2ccn(-c3ccc(F)cc3)c(=O)c2=O)cc1,inactive: 56%
17,CC(NC(=O)CSc1nc(-c2ccccc2F)nc2cc(=O)[nH]n12)c1nc2ccccc2n1C (centres undefined),inactive: 88%
18,Cc1cccc(CN2C(=O)c3ccccc3S(=O)(=O)c3ccc(C(=O)NC4CCCCC4)cc32)c1,inactive: 79%
19,COc1cccc2c(=O)cc(C)[nH]c12,inactive: 88%
20,COc1ccc(NC(=O)c2cc3c(=O)n(Cc4cccnc4)ccc3nc2C)c(OC)c1,inactive: 83%
21,COc1ccc(OC)c(S(=O)(=O)N2CCN(Cc3nc4ccc(C)cc4o3)CC2)c1,inactive: 76%
22,CCN(C(=O)Cn1c(=O)n(Cc2ccc3c(c2)OCO3)c(=O)c2ccc(C(=O)NC3CCCCC3)cc21)c1cccc(C)c1,inactive: 84%

row,Compound,survival
1,Cc1cc(C)cc(NC(=O)N2CCN(C(=O)c3nsc4ccccc34)CC2)c1,inactive: 88%
2,CCOC(=O)c1cc(S(=O)(=O)NCc2ccc(OC)cc2)[nH]n1,inactive: 88%
3,CCCC(=O)Nc1ccccc1C(=O)OCc1cc(=O)n2nc(C(C)C)sc2n1,inactive: 99%
4,Cc1cccc2c(=O)cc(CSc3ccccc3NC(=O)C(C)(C)C)[nH]c12,inactive: 102%
5,CCC(=O)N1CCCc2cc(S(=O)(=O)N3CCC(C(=O)Nc4ccc(C#N)cc4)CC3)ccc21,inactive: 125%
6,CC(=O)c1cccc(NC(=O)Cn2cc(C(=O)c3cccc(Cl)c3)c(=O)c3ccc(C)nc32)c1,inactive: 56%
7,Cc1ccc(OCCSc2nc3ccc(NC(=O)c4ccco4)cc3s2)cc1,inactive: 84%
8,CCOc1ccc2nc(N(Cc3cccnc3)C(C)=O)sc2c1,inactive: 75%
9,COc1ccc(-c2cc3ccc(O)c(CN4CCCCC4C)c3oc2=O)cc1OC (centres undefined),inactive: 67%
10,CC(=O)N1CCc2cc(S(=O)(=O)NC(Cc3ccccc3)C(=O)NCc3ccccc3Cl)ccc21 (centres undefined),inactive: 66%
11,CCCc1ccc(OC(C)c2nc(-c3ccc(-n4cccc4)cc3)no2)cc1 (centres undefined),active: 52%
12,O=C(CCNS(=O)(=O)c1ccc2c(c1)CCN2C(=O)C1CC1)N1CCN(c2cccc(C(F)(F)F)c2)CC1,inactive: 83%
13,Cc1ccc(CNC(=O)CCc2nc3cccnc3n2Cc2ccccc2)cc1,inactive: 74%
14,COc1cc(NC(=O)Cn2nnnc2-c2ccccc2F)cc(OC)c1OC,inactive: 90%
15,Cc1ccc(Cn2cc(S(=O)(=O)c3ccc(Cl)cc3)c(=O)c3cc4c(cc32)OCO4)cc1,inactive: 77%
16,Cc1ccc(CNC(=O)Cn2c(=O)n(Cc3ccccc3)c(=O)c3c2c2cc(C)ccc2n3C)cc1,inactive: 94%
17,COc1ccc(CN2CCc3nc(Nc4ccccc4)ncc3C2)c(OC)c1OC,inactive: 87%
18,CCOc1ccc(N2CC(C)Cn3c2nc2c3c(=O)n(CC(=O)O)c(=O)n2C)cc1 (centres undefined),inactive: 80%
19,COc1cc(N2C(=O)CSC23C(=O)N(C)c2ccccc23)cc(OC)c1OC (centres undefined),inactive: 66%
20,COCCN1Cc2cccc(C(=O)Nc3ccc(C)c(F)c3)c2C1=O,inactive: 66%
21,Cc1cc(C)cc(NC(=O)C(=O)NCC(c2ccc3c(c2)OCO3)N2CCOCC2)c1 (centres undefined),inactive: 107%
22,Cc1ccc(CNC(=O)c2cccc(N3CCCS3(=O)=O)c2)cc1,inactive: 94%

# Source: PubChem BioAssay AID463173 (ICCB-Longwood Screening Facility, Harvard Medical School, 2010)
